# Measurements published in PubChem BioAssay AID1768 (National Center for Advancing Translational Sciences (NCATS), 2009).
# Values joined by “and” are separate entries in the source; they are usually repeats but may differ in a detail not shown here. Equal values may be shown once. Out of some 270,000 compounds screened, about 620 (0.23%) were called active. The shares of active, inactive and inconclusive entries below differ from those in the screen. The call rests on the fitted dose curve; in most records, active means well fitted inhibition curve with a large enough effect in the polarisation, with a control signal flat (not every such curve was filed as active); inconclusive means small, poorly fitted or top-dose-only effect, or effect the other way, or a change in a side signal; inactive means no such curve, though single readings can be large or run the other way; the % refers to the polarisation. Where the call is inconclusive, the potency comes from a doubtful curve fit. A note “side channel” means that the fit belongs to a control or component signal, not to the main read-out.
# Molecular target: Menin (Homo sapiens) (UniProt O00255)
# Assay: qHTS Assay for Inhibitors Targeting the Menin-MLL Interaction in MLL Related Leukemias: Competition With Texas Red Labeled MLL-derived Mutant Peptide; on FP activity change, negative = inhibition: % of control where 0% means no effect
# Conditions: fluorescence polarization; FP activity change, negative = inhibition: at 61.6 µM (top of the series)
# Potency means the concentration at half of the fitted maximal effect; tags describe the fitted curve by direction and shape or compound fluorescence and quenching.
# Chain of UniProt O00255 (O00255 whole entry, looked up): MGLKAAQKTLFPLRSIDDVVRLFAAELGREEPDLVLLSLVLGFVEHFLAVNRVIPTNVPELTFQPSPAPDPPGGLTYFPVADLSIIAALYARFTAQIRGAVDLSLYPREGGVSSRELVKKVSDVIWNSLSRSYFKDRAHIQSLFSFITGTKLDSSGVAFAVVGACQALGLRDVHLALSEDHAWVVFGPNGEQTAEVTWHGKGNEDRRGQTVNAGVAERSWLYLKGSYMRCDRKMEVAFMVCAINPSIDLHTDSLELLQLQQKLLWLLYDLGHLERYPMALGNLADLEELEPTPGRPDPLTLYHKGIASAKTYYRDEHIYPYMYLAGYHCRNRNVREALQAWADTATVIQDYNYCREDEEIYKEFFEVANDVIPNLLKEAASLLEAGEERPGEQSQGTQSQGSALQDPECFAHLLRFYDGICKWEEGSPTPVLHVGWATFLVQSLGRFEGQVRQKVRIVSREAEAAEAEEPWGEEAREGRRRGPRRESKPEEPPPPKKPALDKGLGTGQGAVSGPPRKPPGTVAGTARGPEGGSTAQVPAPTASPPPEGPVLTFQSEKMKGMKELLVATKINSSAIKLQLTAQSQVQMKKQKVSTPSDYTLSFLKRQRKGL
SMILES,Potency,"FP activity change, negative = inhibition"
COC(=O)C1CCN(C(=O)C(C)Oc2ccc(Cl)cc2Cl)CC1 (stereo not drawn),"inconclusive: 0.631 µM [inhibitor, full curve, poor fit]",
O=S(=O)(c1ccccc1)N1N=C(c2cccs2)CC1c1ccc(F)cc1 (stereo not drawn),"inconclusive: 20 µM [inhibitor, single point]",
O=[N+]([O-])c1ccccc1S(=O)(=O)Nc1cccc2cccnc12,"inconclusive: 31.6 µM [quencher, side channel, single point] and inconclusive: 25.1 µM [quencher, side channel, partial curve]",
O=C(C1CCC1)N1CCc2cc(S(=O)(=O)NC3CCCC3)ccc21,"inconclusive: 2 µM [inhibitor, partial curve]",
COc1ccc(C(=O)N2CCN(Cc3ccc(OC)c(OC)c3)CC2)cc1,"inconclusive: 22.4 µM [inhibitor, partial curve, poor fit]",
CCOc1ccccc1NC(=O)[C@@H](NC(=O)c1ccccc1F)C(C)C,"inconclusive: 0.631 µM [inhibitor, full curve]",
COc1ccc(N(C(=O)/C=C/C(=O)Nc2cc(C)on2)C(C(=O)NC2CCCC2)c2ccccc2C)cc1 (stereo not drawn),,inactive: -29.3%
CC(C)OP(=O)(OC(C)C)C1(NS(=O)(=O)c2ccc(Cl)cc2)C=C(Cl)C(=O)C(Cl)=C1,"inconclusive: 11.2 µM [quencher, side channel, partial curve]",
CCCCCn1c(=O)[nH]c2cc(C(=O)NCCCN(CC)CC)ccc2c1=O,,inactive: -26.8%
Cc1ccc(C(=O)N2N=C(c3cccc(NS(C)(=O)=O)c3)CC2c2cccs2)cc1 (stereo not drawn),"inconclusive: 14.1 µM [quencher, side channel, partial curve]",
Nc1cc(Cl)ccc1Oc1ccc(Cl)cc1,"inconclusive: 35.5 µM [quencher, side channel, partial curve]",
CNC(=O)Oc1ccc2c(c1)C1(C)CCN(C)C1N2C (stereo not drawn),,inactive: -1.74% [at 24.8 µM]
CC1CCc2cc(F)ccc2N1C(=O)C1(C)CC1(Cl)Cl (stereo not drawn),"inconclusive: 4.47 µM [inhibitor, full curve]",
COc1ccc(C(CC(=O)N2CCCC2)C(C)C)cc1 (stereo not drawn),"inconclusive: 39.8 µM [inhibitor, single point]",
COc1ccc(C(=O)Nc2nnc(CC(=O)N/N=C/c3ccc(O)cc3O)s2)cc1,"inconclusive: 10 µM [quencher, side channel, partial curve]",
COc1cccc(C(=O)CC2c3c(c(Br)c4c(c3OC)OCO4)CCN2C)c1 (stereo not drawn),,inactive: -22.4%
c1cc2cc(-c3c(-c4ccc5c(c4)OCO5)noc3-c3ccsc3)ccc2[nH]1,"inconclusive: 3.16 µM [quencher, partial curve]",
Cc1ccccc1NC(=O)c1cc2c(=O)n3cccc(C)c3nc2s1,"inconclusive: 35.5 µM [fluorescent, side channel, single point]",
COc1ccc(NC(=S)N2CCC(NC(=O)c3ccc(OC)cc3)CC2)cc1,"inconclusive: 22.4 µM [inhibitor, partial curve]",

SMILES,Potency,"FP activity change, negative = inhibition"
CC(=O)c1cccc(NC(=O)Nc2cc3sccc3n2C)c1,"inconclusive: 35.5 µM [quencher, side channel, single point]",
CC1(C)c2ccccc2N2CCC(=O)NC21/C=C/c1ccco1 (stereo not drawn),"inconclusive: 20 µM [fluorescent, side channel, partial curve]",
Cc1cc(C(C)(C)C)oc1C(=O)N(CC(=O)NC1CCCC1)c1ccc(F)cc1,"inconclusive: 11.2 µM [fluorescent, side channel, partial curve]",
c1ccc(N2CCN(c3ncccn3)CC2)cc1,,inactive: 4.78%
Cc1cc(-c2ccccc2)nc2c(Br)c(=O)[nH]n12,"inconclusive: 31.6 µM [quencher, side channel, single point]",
CCCn1c(CN(C)Cc2ccccc2)nc2c1c(=O)n(C)c(=O)n2C,,inactive: -0.314%
CC(C)(C)C1CCC(OCC(O)CN2CCN(c3ccccc3)CC2)CC1 (stereo not drawn),"inconclusive: 20 µM [fluorescent, side channel, partial curve]",
CCOC(=O)c1c(N)sc(C(O)(C(F)(F)F)C(F)(F)F)c1-c1ccc(F)cc1,"inconclusive: 25.1 µM [quencher, side channel, single point]",
CC1=C(C(=O)OC(C)C)C(c2ccc(Cl)cc2)n2c(s/c(=C\c3ccc(OCC(=O)O)cc3)c2=O)=N1 (stereo not drawn),,inactive: 28.7%
CCCn1c(=O)[nH]c2ccccc21,,inactive: 1.32%
COc1ccc(C(=O)Nc2ccc(-c3n[nH]c(=S)o3)cc2)cc1OC,"inconclusive: 28.2 µM [quencher, side channel, partial curve]",
CCC[C@@H]1C[C@@]1(CCC)[C@@H](NP(=O)(c1ccccc1)c1ccccc1)c1ccc(C(=O)OC)cc1,inactive,
Cc1ccc(S(=O)(=O)c2cc3ccccc3oc2=Nc2ccc3c(c2)OCO3)cc1,"inconclusive: 10 µM [inhibitor, partial curve]",
O=c1n(S(=O)(=O)c2cccc3cccnc23)c2ccccc2n1S(=O)(=O)c1cccc2cccnc12,"inconclusive: 39.8 µM [inhibitor, single point]",
COc1ccc(C(=O)C[n+]2cc(-c3ccc(OC)cc3)n3c2CCCC3)cc1,"inconclusive: 39.8 µM [inhibitor, single point]",
Cc1ccc(N=C2NC(=O)/C(=C\c3ccco3)S2)cc1,"inconclusive: 20 µM [quencher, side channel, single point]",
Cc1ccc(Cl)cc1NC(=O)C1CCCN1S(=O)(=O)c1ccc(-c2ccc(=O)[nH]n2)s1 (stereo not drawn),"inconclusive: 28.2 µM [quencher, side channel, partial curve]",
COc1ccc(Br)cc1CN1CCN(Cc2c[nH]c3ccccc23)CC1,"inconclusive: 12.6 µM [fluorescent, side channel, partial curve]",
Cc1cccc(Cn2c(Cc3ccccc3)nc3ccccc32)c1,"inconclusive: 11.2 µM [fluorescent, side channel, partial curve]",
